In PubChem BioAssay AID2147 (National Center for Advancing Translational Sciences (NCATS), 2009):
Out of some 230,000 compounds screened, about 3,600 (1.6%) were called active. Inconclusive results, whose numbers are uncertain, are shown with a selection of clear calls. The call rests on the fitted dose curve; in most records, active means well fitted inhibition curve with a large enough effect (not every such curve was filed as active); inconclusive means small, poorly fitted or top-dose-only effect, or another doubt; inactive means no such curve, though single readings can be large or run the other way. Potencies beside an inconclusive call are fits to weak or partial responses and may not hold up.

What follows are compounds tested against Lysine-specific demethylase 4E (Homo sapiens) (UniProt B2RXH2) (assay: qHTS Assay for Inhibitors of Human Jumonji Domain Containing 2E (JMJD2E)). Details: JMJD2E catalytic domain, FDH-coupled NADH fluorescence (FDH is formaldehyde dehydrogenase); series mostly up to 57.1 µM.
Further: nearly all actives have a fitted effect of over 50% in size.
Potency means the concentration at half of the fitted maximal effect; tags describe the fitted curve by direction and shape.

Chain of UniProt B2RXH2 (B2RXH2 whole entry, looked up, the tested form may be a part): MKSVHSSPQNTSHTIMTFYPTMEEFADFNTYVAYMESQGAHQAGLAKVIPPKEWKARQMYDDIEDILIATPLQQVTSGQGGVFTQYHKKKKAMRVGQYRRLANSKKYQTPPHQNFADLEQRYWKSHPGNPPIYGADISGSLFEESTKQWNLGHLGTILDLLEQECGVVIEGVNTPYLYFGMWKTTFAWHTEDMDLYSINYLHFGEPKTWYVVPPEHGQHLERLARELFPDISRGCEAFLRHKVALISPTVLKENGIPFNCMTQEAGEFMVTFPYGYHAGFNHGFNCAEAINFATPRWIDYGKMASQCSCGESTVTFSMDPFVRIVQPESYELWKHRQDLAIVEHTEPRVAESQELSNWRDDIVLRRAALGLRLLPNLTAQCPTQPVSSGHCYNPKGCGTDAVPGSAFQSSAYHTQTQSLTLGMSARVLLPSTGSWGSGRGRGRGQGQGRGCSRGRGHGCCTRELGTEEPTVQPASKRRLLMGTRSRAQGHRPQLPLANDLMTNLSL

SMILES	Potency
CC1CC(C)CN(c2oc(-c3ccccc3Cl)nc2C#N)C1 (stereo not given)	inconclusive: 6.31 µM [inhibitor, full curve]
CN(C)C(=O)/C=C\c1cn(-c2ccccc2)nc1-c1ccc2c(c1)OCCO2	inconclusive: 25.1 µM [inhibitor, partial curve]
Cc1cc(C)c2nc(N3CCN(C)CC3)c(C#N)cc2c1	inconclusive: 7.08 µM [inhibitor, single point]
COc1ccc(CC(NC(C)=O)C(=O)NC2CCN(c3nc(C)cc(C)c3C#N)CC2)cc1 (stereo not given)	inconclusive: 28.2 µM [inhibitor, partial curve]
O=C(Nc1ccccc1)c1ccccc1N=Cc1ccccc1O	inconclusive: 31.6 µM [inhibitor, partial curve]
O=c1[nH]c(CN2CCc3ccccc3C2)nc2ccccc12	inconclusive: 35.5 µM [inhibitor, single point]
OCCC1CN(Cc2cnc(N3CCOCC3)s2)CCN1C1CCCC1 (stereo not given)	inactive
CCOC(=O)CCCCC(=O)c1[nH]c(=O)[nH]c1CSc1nc(C)cc(C)n1	inactive
CCC(c1n[nH]c(=S)n1-c1ccccc1)N(C)C (stereo not given)	inactive
COc1ccc(OCC#CCNC(C)(C)C)cc1	inconclusive: 28.2 µM [inhibitor, single point]
COc1c(C)oc2cc(O)ccc2c1=O	inconclusive: 28.2 µM [inhibitor, partial curve]
Cc1ccc2cc(CN(C)C(=O)C3CCCO3)c(=O)[nH]c2c1 (stereo not given)	inconclusive: 35.5 µM [inhibitor, single point]
CC(=O)CSc1ncnc2c1cnn2-c1ccccc1	inconclusive: 39.8 µM [inhibitor, single point]
CCc1cccc2cc3c(N)c(C(=O)Nc4ccc(S(=O)(=O)N5CCCC5)cc4)sc3nc12	inactive
C=C(Cl)COc1cc(C)cc2oc(=O)cc(CC)c12	inconclusive: 25.1 µM [inhibitor, partial curve]
COc1ccc(OC)c(NC(=O)Cn2cc(C(=O)c3ccco3)c3ccccc32)c1	inconclusive: 31.6 µM [inhibitor, single point]
CCc1ccc2oc(-c3ccc(OC)cc3)cc(=Nc3c(C)n(C)n(-c4ccccc4)c3=O)c2c1	inconclusive: 31.6 µM [inhibitor, partial curve]
CC(=O)C1=C(O)C(=O)N(Cc2ccco2)C1c1cccc(F)c1 (stereo not given)	inconclusive: 14.1 µM [inhibitor, partial curve]
CN1C(=O)c2cccc(N(C)C)c2C1=O	inactive
CCc1nnc(/N=C/c2c(O)n(-c3ccc(Cl)cn3)c(=O)c3ccccc23)s1	inconclusive: 14.1 µM [inhibitor, partial curve]
C=CCn1c(COc2ccccc2)nnc1SC(C)C(=O)N/N=C/c1cc(Cl)ccc1O (stereo not given)	inconclusive: 25.1 µM [inhibitor, single point]
Cc1c(-c2ccc(F)cc2)nc(N)c(C#N)c1-c1cccs1	inconclusive: 39.8 µM [inhibitor, single point]
CCOc1ccccc1C1CC(c2ccccc2)Nc2nc(N)nn21 (stereo not given)	inconclusive: 28.2 µM [inhibitor, single point]

SMILES	Potency
CCCc1nn2c(=O)c(C(c3cccc(Cl)c3)c3c(O)nc4sc(CCC)nn4c3=O)c(O)nc2s1	inconclusive: 39.8 µM [inhibitor, single point]
Cc1csc(SCC(=O)NC(=O)NC2CCCC2)n1	inconclusive: 11.2 µM [inhibitor, full curve, poor fit]
CSc1ccc(CN2CCN(CC=C(C)C)C(CCO)C2)cc1 (stereo not given)	inconclusive: 39.8 µM [inhibitor, single point]
COCCCN1C(=O)c2ccc(C(=O)Nc3ccc(OC)cc3)cc2C1=O	inactive
COC(=O)C1=C(C)NC(C)=C(C(=O)OC)C1/C=C/c1ccccc1	inconclusive: 28.2 µM [inhibitor, single point]
C=C(C)CNC(=S)N/N=C/c1ccccc1OCC(=O)O	inconclusive: 39.8 µM [inhibitor, single point]
c1ccc(OCc2nnc3n2N=C(c2ccccc2)CS3)cc1	inconclusive: 22.4 µM [inhibitor, single point]
CCOC(=O)c1c(C)n(C)c2ccc(OCC(O)Cn3nc(C)cc3C)cc12 (stereo not given)	inconclusive: 35.5 µM [inhibitor, single point]
CC1(C)Cc2c(C#N)c(N3CCOCC3)nc(Cc3ccccc3)c2CO1	inconclusive: 31.6 µM [inhibitor, partial curve]
COc1ccc(OCCC(=O)OCC(=O)c2ccc[nH]2)cc1	inactive
CCc1ccc2c(c1)[C@]1(C(=O)N2)[C@@H]2C(=O)N(Cc3ccccc3)C(=O)[C@@H]2[C@@H]2CCCN21	inconclusive: 39.8 µM [inhibitor, single point]
Cc1cccc(-c2nnc3n2N=C(c2ccccc2Br)CS3)c1	inactive
Cc1cc(=O)[nH]c(NN=C2CCC(C(C)(C)C)CC2)n1 (stereo not given)	inactive
COc1ccc(Oc2nccc(-c3ccc(F)cc3)c2C#N)cc1	inconclusive: 35.5 µM [inhibitor, single point]
O=C(COC(=O)c1cccc2ccccc12)NCCCc1ccccc1	inconclusive: 35.5 µM [inhibitor, single point]
COCCCn1c2nc3ccccc3nc2c2c(=O)n(Cc3ccccc3Cl)cnc21	inconclusive: 1.26 µM [inhibitor, full curve]
CC(=O)N1N=C(c2ccccc2)OC12CCCC2	inconclusive: 28.2 µM [inhibitor, partial curve]
Cc1ccc2[nH]c(=O)c3cc(C(=O)NCC4CCCO4)sc3c2c1 (stereo not given)	inconclusive: 28.2 µM [inhibitor, partial curve]
O=S(=O)(Nc1nc2c(s1)CCCC2)c1ccc(Br)cc1	inactive
CCOC(=O)c1cnc(-n2nc(C)cc2C)[nH]c1=O	inconclusive: 31.6 µM [inhibitor, single point]
CNC(=O)c1ccccc1F	inactive
Cc1cccc(CSc2nc3ccncc3n2CC(=O)Nc2cc(C)cc(C)c2)c1	inconclusive: 39.8 µM [inhibitor, single point]
